Source: paper PMC4336329 (PLoS ONE, 2015)
About 14,000 (4.5%) of roughly 310,000 compounds showed an effect of 50% or more. The effect is printed as a negative number. The list shows a part of the results.

Target: human ether-à-go-go-related gene (hERG) potassium channel (human, UniProt Q12809)
Test: primary screen, population patch clamp on CHO cells stably expressing hERG
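Also: peak tail current of the secondary pulse compared with the same well before compound.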

Chain of human ether-à-go-go-related gene (hERG) potassium channel (Q12809 whole entry, looked up): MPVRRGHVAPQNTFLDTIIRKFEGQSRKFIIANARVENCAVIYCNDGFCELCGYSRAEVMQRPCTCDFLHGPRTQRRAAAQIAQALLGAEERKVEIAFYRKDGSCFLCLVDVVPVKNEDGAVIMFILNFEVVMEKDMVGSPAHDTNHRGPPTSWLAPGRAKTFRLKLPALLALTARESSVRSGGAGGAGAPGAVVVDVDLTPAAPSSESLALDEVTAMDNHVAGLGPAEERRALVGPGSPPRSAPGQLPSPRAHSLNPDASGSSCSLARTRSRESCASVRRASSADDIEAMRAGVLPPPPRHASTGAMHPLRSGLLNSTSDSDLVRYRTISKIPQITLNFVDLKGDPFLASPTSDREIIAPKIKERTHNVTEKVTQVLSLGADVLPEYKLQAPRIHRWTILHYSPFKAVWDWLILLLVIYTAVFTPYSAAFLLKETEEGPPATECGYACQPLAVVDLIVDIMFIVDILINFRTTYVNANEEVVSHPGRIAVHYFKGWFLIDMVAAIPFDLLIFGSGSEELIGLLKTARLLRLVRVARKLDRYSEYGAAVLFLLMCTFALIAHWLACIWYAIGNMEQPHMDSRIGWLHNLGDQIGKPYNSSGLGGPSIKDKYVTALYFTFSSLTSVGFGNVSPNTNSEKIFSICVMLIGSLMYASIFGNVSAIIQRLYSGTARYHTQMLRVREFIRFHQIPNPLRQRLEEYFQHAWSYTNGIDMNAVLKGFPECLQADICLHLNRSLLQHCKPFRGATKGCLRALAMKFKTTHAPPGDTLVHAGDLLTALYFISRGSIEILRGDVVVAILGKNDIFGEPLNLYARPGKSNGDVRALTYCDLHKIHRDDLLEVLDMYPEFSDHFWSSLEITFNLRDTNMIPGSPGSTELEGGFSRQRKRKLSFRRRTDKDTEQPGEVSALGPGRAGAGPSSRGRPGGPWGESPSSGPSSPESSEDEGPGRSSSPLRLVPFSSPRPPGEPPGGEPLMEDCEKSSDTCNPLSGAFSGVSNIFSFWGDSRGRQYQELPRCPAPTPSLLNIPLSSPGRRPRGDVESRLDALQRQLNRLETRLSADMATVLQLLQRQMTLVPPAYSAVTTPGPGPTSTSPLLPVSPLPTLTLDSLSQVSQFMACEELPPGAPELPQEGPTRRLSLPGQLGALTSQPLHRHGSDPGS

| SMILES | hERG current change (%, negative = inhibition) at 10uM |
| --- | --- |
| CCOc1ccc(S(=O)(=O)N2CCN(C(=S)NC3CC3)CC2)cc1 | -21.3% |
| COc1cc(OC)c(C(=S)N2CCCC2)cc1OC | -19.8% |
| CC(C)Sc1nnc(Cn2c(=O)sc3ccccc32)n1-c1ccccc1 | 0.741% |
| C=CCNC(=O)C(=O)NCC(c1ccc2c(c1)OCO2)N1CCOCC1 (centres unmarked) | 16.7% |
| CC(=O)N1CCN(Cc2nc3scc(-c4ccccc4)c3c(=O)[nH]2)CC1 | -9.96% |
| CC(Sc1nnc(-c2ccccc2)c(-c2ccccc2)n1)C(=O)Nc1ncc(Cl)cc1Cl (centres unmarked) | -4.28% |
| O=C(COc1ccccc1)NNc1nc2ccccc2s1 | -12.2% |
| Cc1ccc(NC(=O)c2ccc(CNc3c(N4CCOCC4)c(=O)c3=O)cc2)cc1 | -1.09% |
| Cc1ccc(NC(=O)CSC2=C(C#N)C(c3ccco3)CC(=O)N2)cc1 (centres unmarked) | -3.4% |
| C=CCn1c(SCC(=O)N2CC(C)OC(C)C2)nnc1-c1ccncc1 (centres unmarked) | 12.5% |
| COc1cc(-c2ncc3ccccn23)cc(OC)c1OC.O=C(O)C(=O)O | 7.76% |
| Cc1ccc(C)c(S(=O)(=O)N2CCN(C(=O)CCC(=O)c3cc(C)sc3C)CC2)c1 | -27.9% |
| CC1CC(C)CN(c2ccc(S(=O)(=O)N3CCOCC3)cc2)C1 (centres unmarked) | -0.0723% |
| COc1ccc(C(C(=O)NC2CCCCC2)N(C(=O)c2ccco2)c2ccc(-n3cnnn3)c(C)c2)cc1 (centres unmarked) | 8.93% |
| COc1ccc(/C=C(\NC(=O)c2ccccc2)C(=O)N/N=C/c2sccc2C)cc1 | -2.46% |
| N#Cc1ccc(OCC(=O)N(C2CCCCC2)C2CCS(=O)(=O)C2)cc1 (centres unmarked) | -50.1% |
| COCCn1c(SCC(=O)Nc2cc(C)nn2-c2ccccc2)nnc1-c1ccncc1 | -37.7% |
| COc1ccc2ccccc2c1/C=N/NC(=O)c1cc(C)[nH]n1 | -0.221% |
| COc1ccc(OCC(=O)N2CCN(C(=O)COc3ccc(Br)cc3)CC2)cc1 | -71.9% |
| Cc1nc(N2CCN(C)CC2)c2cc(-c3ccccc3)sc2n1 | -18.7% |
| O=C(Nc1cccc([N+](=O)[O-])c1)c1ccc2c(c1)C(=O)N(c1ccccn1)C2=O | -41.5% |
| CCc1ccccc1NC(=O)CC1CS(=O)(=O)CC1CC(=O)Nc1ccccc1CC (centres unmarked) | 12.1% |

| SMILES | hERG current change (%, negative = inhibition) at 10uM |
| --- | --- |
| Nn1c(SCc2ccccc2F)nnc1-c1cccnc1 | 29.5% |
| N#Cc1c(N)n(CCCN2CCOCC2)c2nc3ccccc3nc12 | -29.4% |
| COc1ccc(/C=C/C(=O)c2cc(F)ccc2OC(=O)c2ccc(OC)c(OC)c2)cc1OC | -7.09% |
| N#CC1=C(N)Oc2n[nH]c(-c3cccs3)c2C1c1ccoc1 (centres unmarked) | -6.01% |
| CCOC(=O)N1CCC(N2C(=O)c3ccccc3C2Nc2cccnc2)CC1 (centres unmarked) | 1.81% |
| Cc1c(OC(C)C(=O)N2C[C@H]3C[C@@H](C2)c2cccc(=O)n2C3)ccc2c3c(c(=O)oc12)CCC3 (some centres unmarked) | 0.0759% |
| CC(=O)Nc1ccc(C(=O)N(C)c2ccccc2)cc1 | 12.4% |
| Cc1cc(C)c(S(N)(=O)=O)c(C)c1N(C)S(=O)(=O)c1ccccc1 | -21.2% |
| COc1ccc(Cl)c(NC(=O)NCCN2CCN(c3ccccc3)CC2)c1 | 5.63% |
| COc1cc(C(=O)Oc2cc(N)n(S(=O)(=O)c3ccccc3)n2)cc(OC)c1OC | 11.3% |
| CC(CN1CCCCC1)OC(=O)c1ccc(Cl)cc1.Cl (centres unmarked) | -36.4% |
| CC(=O)Nc1ccc(NC(=O)COC(=O)Cc2c[nH]c3ccccc23)cc1 | 10.2% |
| CCc1ccc(N(C(=O)Cc2cccs2)C(C(=O)NC2CCCCC2)c2cn(C)nc2C)cc1 (centres unmarked) | -21.4% |
| Nc1ncnc2c1ncn2[C@@H]1O[C@@H]2COP(=O)([O-])O[C@H]2[C@H]1O.[Na+] | -22.7% |
| COc1ccc(Cl)cc1NS(=O)(=O)c1cccc(C(=O)NCC(C)(C)N2CCOCC2)c1 | -12.6% |
| Cc1occc1C(=O)NC(C)C12CC3CC(CC(C3)C1)C2 (centres unmarked) | -0.651% |
| C=C(C)CN(CC)c1nc(N)c2c(N)nc3c(c2c1C#N)CC(=O)N3C12CC3CC(CC(C3)C1)C2 | 10.5% |
| COC(=O)C1=C(c2ccc(OC)c(OC)c2)C[C@@H]2CC[C@H]1N2C(=O)NCC1CC1 | 15.1% |
| Cc1c(CCC(=O)O)c(=O)oc2cc(O)ccc12 | 12.1% |
| Fc1ccccc1N1CCN(Cc2nc(-c3ccc(Cl)cc3Cl)no2)CC1 | -1.27% |
| CN(Cc1ccc(Cl)c(Cl)c1)C(=O)C1CSC2(C)CCC(=O)N12 (centres unmarked) | -17% |
| COc1ccccc1CC(=O)NNC(=O)CN(C)S(=O)(=O)c1ccc(Cl)cc1 | -1.75% |

| SMILES | hERG current change (%, negative = inhibition) at 10uM |
| --- | --- |
| Cc1ccc(NS(=O)(=O)c2ccc(NC(=O)[C@@H]3CCCC[C@@H]3C(=O)O)cc2)c(C)c1 | 18% |
| O=C(Nc1cccn(Cc2ccccc2)c1=O)NC1CCCCC1 | -33.3% |
| Cc1ccc(S(=O)(=O)C(C#N)c2nc3ccccc3nc2OCCO)cc1 (centres unmarked) | 5.71% |
| N/C(=N\OC(=O)c1cccc(Br)c1)c1ccccc1 | 7.87% |
| CC(=O)Nc1ccc(S(=O)(=O)N(C)c2ccc(OCC(=O)OCC(=O)N3CCCCC3)cc2)cc1 | -2.99% |
| c1ccc2c(c1)Nc1nccnc1S2 | 14.6% |
| CC(=O)N(CCC(c1ccccc1)c1ccco1)Cc1cccs1 (centres unmarked) | -52.9% |
| C/C(=N\OCC(=O)OCC(=O)N(C)c1ccccc1)c1ccc2c(c1)OCO2 | 0.0513% |
| Cc1ccc(-n2nnc3c(=O)n(CC(=O)OCc4ccccc4)cnc32)cc1 | -4.86% |
| COC(=O)C(Cc1ccc(O)cc1)N1Cc2ccccc2C1=O (centres unmarked) | 16.2% |
| Cc1cc(C)c(C(=O)COC(=O)c2cccnc2Cl)c(C)c1 | -3.81% |
| O=C(OCCOc1ccccc1Cl)c1ccc(-n2cnnn2)cc1 | -19.2% |
| Cc1ccc(-c2csc(=S)n2CC(=O)OCC(=O)NCc2ccc(F)cc2)cc1 | -7.49% |
| N#CC1=C(N)NC(=S)C(C(N)=O)C1c1ccc(Cl)cc1Cl (centres unmarked) | 29.3% |
| O=C(NC(Cc1ccccc1)c1nc2ccccc2[nH]1)c1ccc(Cl)c([N+](=O)[O-])c1 (centres unmarked) | 6.49% |
| CCN(CC)S(=O)(=O)c1ccc(NCCCn2ccnc2)c([N+](=O)[O-])c1 | -57.2% |
| Cc1nccn1C(c1ccccc1)c1ccccc1.O=C(O)C(=O)O | -10.9% |
| Cc1ccccc1C(=O)NNC(=O)C12CC3CC(CC(C3)C1)C2 | 2.76% |
| C#CC(C)(CC)NC(=O)c1cc2cccc(CC=C)c2oc1=O (centres unmarked) | 25.3% |
| O=C(C1CC=CCC1)N1CCC(CO)(Cc2ccc(Cl)cc2)CC1 (centres unmarked) | -7.77% |
| COc1ccc2c(c1)c1nc3n(c(=O)c1n2CC(=O)Nc1cc(C)[nH]n1)CCS3 | 6.64% |
| Oc1c(C(Nc2nc3ccccc3s2)c2ccco2)ccc2cccnc12 (centres unmarked) | 10.7% |

| SMILES | hERG current change (%, negative = inhibition) at 10uM |
| --- | --- |
| Cc1ccccc1CC1(CO)CCCN(C(=O)c2ccc(F)cc2)C1 (centres unmarked) | 14.2% |
| COc1cccc(NC(=O)CSc2nc(C3CC3)nc3ccccc23)c1 | 4.75% |
| O=C(c1cc2ccccc2o1)c1nc2c(n1O)CCCCC2 | 12.2% |
| CCCCNc1c(C(=O)OCC)c(=O)[nH]c2ccccc12 | 4.82% |
| CCOC(=O)COc1ccc(Br)cc1/C=C1\SC(N)=NC1=O | 3.48% |
| Clc1cccc(CSc2nnc(-c3sccc3-n3cccc3)o2)c1 | -1.88% |
| CCN(CC)CCNC(=O)c1ccc(NC(=O)c2ccc3c(c2)CCC3)cc1 | -48.6% |
| Cc1ccc(C2(c3noc(CN(C)CCO)n3)CCCC2)cc1 | 12.2% |
| Cc1cccc(C(=O)Oc2c(Br)cc(Br)cc2/C=N/NC(=O)c2ccncc2)c1 | 1.95% |
| Cc1onc(-c2ccccc2)c1C(=O)OCC(=O)Nc1cccc(Cl)c1 | -4.69% |
| COc1ccc2ccc(OC)c(/C=N/n3cnnc3)c2c1 | -2.97% |
| CCNC(=O)CC1C(=O)N(c2ccc(F)cc2)C(=O)N1Cc1ccc(OC)cc1 (centres unmarked) | -10.3% |
| Cc1ccc(OCC(=O)N2CCOCC2)cc1C | 10.7% |
| c1ccc(-c2noc(C3CCC3)n2)nc1 | 4.59% |
| O=C(COC(=O)CCSc1ccccc1Cl)NCc1ccco1 | 6.44% |
| C/C(=N/NC(=O)c1ccoc1C)c1cccc(NC(=O)C2CC2)c1 | -11.4% |
| O=C(O)c1ccc(N2C(=O)CC(N3CCN(c4cccc(C(F)(F)F)c4)CC3)C2=O)cc1 (centres unmarked) | -4.83% |
| Cc1ccc(C)c(NC(=S)N(C)CCO)c1 | 23.1% |
| O=C(NCCN1CCOCC1)c1cccc(Cl)c1 | -1.9% |
| CC(=O)Nc1ccc(NC(=O)C/C(C)=N/NC(=O)C(=O)N2CCCC2)cc1 | 20.2% |
